{"source": "patent US4368267A", "about": "“Epoxidation of lower α-olefins” (priority 1980, dated 1983)", "key": {"[1]": {"target": "T1, cell-free fractions of Methylococcus capsulatus (CRL M1, NRRL B-11,219) (Methylococcus capsulatus, UniProt G1UBD1+Q603F1+Q607G3)", "T1 sequence (G1UBD1 33-414)": "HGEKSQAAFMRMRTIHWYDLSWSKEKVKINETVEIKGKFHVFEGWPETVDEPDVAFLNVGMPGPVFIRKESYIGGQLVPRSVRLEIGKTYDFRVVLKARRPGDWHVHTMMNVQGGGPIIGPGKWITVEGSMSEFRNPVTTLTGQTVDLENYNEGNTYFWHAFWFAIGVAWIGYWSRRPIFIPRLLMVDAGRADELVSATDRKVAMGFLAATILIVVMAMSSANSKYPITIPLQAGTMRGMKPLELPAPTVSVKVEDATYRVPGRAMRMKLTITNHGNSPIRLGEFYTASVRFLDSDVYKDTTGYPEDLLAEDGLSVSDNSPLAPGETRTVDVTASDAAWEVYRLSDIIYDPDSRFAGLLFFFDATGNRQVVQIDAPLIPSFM", "T1 sequence (Q607G3 1-247)": "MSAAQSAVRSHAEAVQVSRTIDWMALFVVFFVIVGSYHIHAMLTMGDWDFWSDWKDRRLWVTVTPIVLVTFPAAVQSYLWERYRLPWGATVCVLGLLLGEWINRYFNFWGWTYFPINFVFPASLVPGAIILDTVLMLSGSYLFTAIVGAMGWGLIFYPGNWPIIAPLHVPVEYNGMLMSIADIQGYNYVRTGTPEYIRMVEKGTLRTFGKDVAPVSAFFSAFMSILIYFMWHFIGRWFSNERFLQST", "T1 sequence (Q603F1 1-260)": "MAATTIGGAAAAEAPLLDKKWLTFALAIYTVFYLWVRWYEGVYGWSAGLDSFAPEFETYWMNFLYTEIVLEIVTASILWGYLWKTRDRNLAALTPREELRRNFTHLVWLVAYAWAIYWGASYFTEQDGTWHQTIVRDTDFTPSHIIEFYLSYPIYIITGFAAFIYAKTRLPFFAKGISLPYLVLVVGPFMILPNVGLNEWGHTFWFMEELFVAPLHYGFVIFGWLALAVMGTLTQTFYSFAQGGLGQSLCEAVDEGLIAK", "test": "Epoxidation and hydroxylation activities in cell-free fractions", "type": "biochemical", "settings": "Supernatant fraction + NADH (2.5 μmoles)", "protocol": "Cells of methane-grown Methylococcus capsulatus (CRL M1, NRRL B-11,219) were obtained by the method of Example 1. […] However, when the cells were disrupted by passing twice through a French pressure cell (1000 Kg. pressure), both activities were found in the crude extract after 10,000×g. centrifugation. All of the activity in the crude extract was collected as a particulate fraction by further centrifugation of the crude extract at 40,000×g. for 90 min. at 4° C."}, "[2]": {"test_system": "whole cell suspensions of methylotrophs (C1 -utilizing microbes)"}, "[3]": {"test_system": "Methylococcus capsulatus (CRL M1, NRRL B-11,219)", "test": "Oxidation/epoxidation by washed cell suspensions", "type": "cell-based"}, "[4]": {"test_system": "Methylococcus capsulatus strain MC", "test": "Stimulation of propylene epoxidation in cell suspensions", "type": "cell-based", "settings": "Propylene + 5 mM stimulator compound", "protocol": "(§1) The pH of the nutrient medium was adjusted to 7.0 by the addition of acid or base and 50 ml aliquots of the nutrient medium was charged into a plurality of 300 ml shake flasks. The shake flasks were inoculated with an inoculating loop of cells from an agar plate containing homogeneous colonies of the microorganisms on the plate (the purity of the isolates were confirmed by microscopic examination). The isolates had been maintained on agar plates under an atmosphere of methane and air having a 1:1 v/v gas ratio which had been transferred every two weeks. The gaseous phase of the inoculated flasks was then replaced with a gas mixture comprised of methane and air having a ratio of 1:1 on a v/v basis. The inoculated flasks were sealed air tight and were incubated on a rotary shaker of orbital radius 2.5 cm at 250 rpm and at 30° C. for two days until the turbidity in the medium had developed.\n(§2) The cells were harvested by centrifugation at 10,000 ×g at 4° C. for 30 minutes. The cell pellet was washed twice with a 0.15 M phosphate buffer at a pH of 7.0 (containing 0.002 M MgCl2). […]\n(§3) A 0.5 ml aliquot of each washed cell suspension (2 mg cells) was put into 10 ml vials at 4° C. which were sealed with a rubber cap. […] Samples of product (3 μl) were withdrawn periodically with a microsyringe and the products were analyzed by gas chromatography (ionization flame detector column). […]"}, "[5]": {"test_system": "Methylobacter capsulatus Y (NRRL B-11,201)", "test": "Methane hydroxylation and propylene epoxidation by washed cell suspensions", "type": "cell-based", "settings": "Propylene + 5 mM stimulator compound", "protocol": "as §1, §2, §3"}, "[6]": {"test_system": "Methylosinus trichosporium OB3b (NRRL B-11,196)", "test": "Methane hydroxylation and alkene epoxidation by washed cell suspensions", "type": "cell-based", "protocol": "as §1, with “The shake flasks were inoculated with an inoculating loop of cells from an agar plate containing homogeneous colonies of the microorganisms on the plate (the purity of the isolates were confirmed by microscopic examination).” left out\n(§4) The cells were harvested by centrifugation at 10,000 ×g at 4° C. for 30 minutes. The cell pellet was washed twice with a 0.15 M phosphate buffer at a pH of 7.0 (containing 0.002 M MgCl2). The washed cells were then suspended in a 0.15 M phosphate buffer at pH 7.0.\n[…] The gaseous phase of the vials was removed with vacuum and then was replaced with a gas mixture of alkene and oxygen at a 1:1 v/v ratio. It was then incubated at 30° C. on a rotary shaker at 300 rpm. Samples of product (3 μl) were withdrawn periodically with a microsyringe and the products were analyzed by gas chromatography (ionization flame detector column)."}, "[7]": {"test_system": "Methylobacterium organophilum (CRL 26, NRRL B-11,222)", "test": "Epoxidation/hydroxylation by washed cell suspensions", "type": "cell-based", "protocol": "as §1, §4\nA 0.5 ml aliquot of each washed cell suspension (2 mg cells) was put into 10 ml vials at 4° C. which were sealed with a rubber cap. The gaseous phase of the vials was removed with vacuum and then was replaced with a gas mixture of alkene and oxygen at a 1:1 v/v ratio. It was then incubated at 30° C. on a rotary shaker at 300 rpm. Samples of product (3 μl) were withdrawn periodically with a microsyringe and the products were analyzed by gas chromatography (ionization flame detector column).\nSeveral experiments were carried out using a plurality of compounds capable of generating the necessary reducing power (NADH2 or NADPH2) required for the epoxidation of alkenes or dienes. These experiments were carried out using cell suspensions of methane grown methylotrophs using the procedure as described in Example 1 except that a stimulator compound was added to the reaction medium."}}, "data": [{"smiles": "NC(=O)C1=CN([C@@H]2O[C@H](COP(=O)(O)OP(=O)(O)OC[C@H]3O[C@@H](n4cnc5c(N)ncnc54)[C@H](O)[C@@H]3O)[C@@H](O)[C@H]2O)C=CC1", "note": "[NADH, reduced nicotinamide adenine dinucleotide, reference compound]", "values": [{"measurement": "Oxidation Rate, Epoxidation of Propylene", "setting": "[1]", "value": 0, "unit": "μmoles/30 min/assay"}, {"measurement": "Oxidation Rate, Hydroxylation of Methane", "setting": "[1]", "value": 0, "unit": "μmoles/30 min/assay"}]}, {"smiles": "CO", "note": "[Methanol]", "values": [{"measurement": "Effect on epoxidation of propylene at higher concentrations", "setting": "[2]; 40 mM for formate and 48 mM for methanol", "value": "No inhibition was observed"}, {"measurement": "Effect on propylene epoxidation or propane hydroxylation", "setting": "[2]; higher methanol concentration (>24 μmoles), within the first hour of reaction", "value": "Some inhibition were observed"}, {"measurement": "Epoxidation Rate (Propylene Oxide)", "setting": "[3]; metabolite 6 mM, 1 Hr, 0.74 mg protein, control 2.0", "value": 2.7, "unit": "μmoles/0.5 ml Assay"}, {"measurement": "Epoxidation Rate (Propylene Oxide)", "setting": "[3]; metabolite 6 mM, 2 Hr, control 3.8", "value": 4.2, "unit": "μmoles/0.5 ml Assay"}, {"measurement": "Epoxidation Rate (Propylene Oxide)", "setting": "[3]; metabolite 6 mM, 3 Hr, control 3.9", "value": 5.2, "unit": "μmoles/0.5 ml Assay"}, {"measurement": "Epoxidation Rate (Propylene Oxide)", "setting": "[3]; metabolite 48 mM, 1 Hr, control 2.0", "value": 1.8, "unit": "μmoles/0.5 ml Assay"}, {"measurement": "Epoxidation Rate (Propylene Oxide)", "setting": "[3]; metabolite 48 mM, 2 Hr, control 3.8", "value": 4.2, "unit": "μmoles/0.5 ml Assay"}, {"measurement": "Epoxidation Rate (Propylene Oxide)", "setting": "[3]; metabolite 48 mM, 3 Hr, control 3.9", "value": 5.2, "unit": "μmoles/0.5 ml Assay"}, {"measurement": "Rate of Product Formation (Propylene Oxide)", "setting": "[4]", "value": 554, "unit": "nmoles/hr/mg protein"}, {"measurement": "Rate of Product Formation (Propylene Oxide)", "setting": "[5]", "value": 79, "unit": "nmoles/hr/mg protein"}, {"measurement": "Epoxidation Rate (Propylene Oxide)", "setting": "[6]; metabolite 6 mM, 1 Hr, 1.1 mg protein, control 2.1", "value": 2.8, "unit": "μmoles/0.5 ml Assay"}, {"measurement": "Epoxidation Rate (Propylene Oxide)", "setting": "[6]; metabolite 6 mM, 2 Hr, control 3.2", "value": 4.0, "unit": "μmoles/0.5 ml Assay"}, {"measurement": "Epoxidation Rate (Propylene Oxide)", "setting": "[6]; metabolite 6 mM, 3 Hr, control 3.3", "value": 5.1, "unit": "μmoles/0.5 ml Assay"}, {"measurement": "Epoxidation Rate (Propylene Oxide)", "setting": "[6]; metabolite 48 mM, 1 Hr, control 2.1", "value": 1.9, "unit": "μmoles/0.5 ml Assay"}, {"measurement": "Epoxidation Rate (Propylene Oxide)", "setting": "[6]; metabolite 48 mM, 2 Hr, control 3.2", "value": 3.8, "unit": "μmoles/0.5 ml Assay"}, {"measurement": "Epoxidation Rate (Propylene Oxide)", "setting": "[6]; metabolite 48 mM, 3 Hr, control 3.3", "value": 5.0, "unit": "μmoles/0.5 ml Assay"}, {"measurement": "Rate of Product Formation (Propylene Oxide)", "setting": "[7]; Propylene + 5 mM stimulator compound", "value": 101, "unit": "nmoles/hr/mg protein"}, {"measurement": "Epoxidation Rate (Propylene Oxide)", "setting": "[7]; metabolite 6 mM, 1 Hr, 1 mg protein, control 1.4", "value": 1.8, "unit": "μmoles/0.5 ml Assay"}, {"measurement": "Epoxidation Rate (Propylene Oxide)", "setting": "[7]; metabolite 6 mM, 2 Hr, control 2.2", "value": 2.5, "unit": "μmoles/0.5 ml Assay"}, {"measurement": "Epoxidation Rate (Propylene Oxide)", "setting": "[7]; metabolite 6 mM, 3 Hr, control 2.6", "value": 3.2, "unit": "μmoles/0.5 ml Assay"}, {"measurement": "Epoxidation Rate (Propylene Oxide)", "setting": "[7]; metabolite 48 mM, 1 Hr, control 1.4", "value": 1.3, "unit": "μmoles/0.5 ml Assay"}, {"measurement": "Epoxidation Rate (Propylene Oxide)", "setting": "[7]; metabolite 48 mM, 2 Hr, control 2.2", "value": 2.5, "unit": "μmoles/0.5 ml Assay"}, {"measurement": "Epoxidation Rate (Propylene Oxide)", "setting": "[7]; metabolite 48 mM, 3 Hr, control 2.6", "value": 3.3, "unit": "μmoles/0.5 ml Assay"}]}]}
